# The list shows a part of the results.
# B1: CAA (Caragana arborescens) (protein)
# chain: VAVEFDTFDNPDWDPRTKHIGIDVNSIRSNKTTQWGFWNRQVADVDISYEASSKTLNVSLYYPGESYIVTDVVDLKDILPEWVRIGF
# Experiments:
# Test in all cases: glycan array binding signal (z-score within array); higher = stronger binding
# Conditions in all cases: glycan notation: IUPAC condensed, linker removed
# [1] = biological target: Fuc(a1-2)Gal6S(b1-3)GlcNAc
# Summary of the method: (§1)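 Negative Z-scores can be read as non-binding. The Z-score is calculated within each array and then averaged across arrays of one protein sequence at different concentrations or buffers and across linkers. Arrays, 3228 in all, were curated from the Consortium for Functional Glycomics database and kept only where the protein sequence was available.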
# [2] = biological target: Fuc(a1-2)Gal6S(b1-3)GlcNAc6S
# Summary of the method: as §1
# Fuc(a1-2)Gal6S(b1-4)Glc = biological target: Fuc(a1-2)Gal6S(b1-4)Glc
# Summary of the method: as §1
# [3] = biological target: Fuc(a1-2)Gal6S(b1-4)Glc6S
# Summary of the method: as §1
# Fuc(a1-2)[Gal(a1-3)]Gal = biological target: Fuc(a1-2)[Gal(a1-3)]Gal
# Summary of the method: as §1
# [4] = biological target: Fuc(a1-2)[Gal(a1-3)]Gal(b1-3)GalNAc
# Summary of the method: as §1
# [5] = biological target: Fuc(a1-2)[Gal(a1-3)]Gal(b1-3)GalNAc(b1-3)Gal(a1-4)Gal(b1-4)Glc
# Summary of the method: as §1
# [6] = biological target: Fuc(a1-2)[Gal(a1-3)]Gal(b1-3)GlcNAc
# Summary of the method: as §1
# [7] = biological target: Fuc(a1-2)[Gal(a1-3)]Gal(b1-3)GlcNAc(b1-2)Man(a1-3)[Fuc(a1-2)[Gal(a1-3)]Gal(b1-3)GlcNAc(b1-2)Man(a1-6)]Man(b1-4)GlcNAc(b1-4)GlcNAc
# Summary of the method: as §1
# [8] = biological target: Fuc(a1-2)[Gal(a1-3)]Gal(b1-3)GlcNAc(b1-2)Man(a1-3)[Fuc(a1-2)[Gal(a1-3)]Gal(b1-3)GlcNAc(b1-2)Man(a1-6)]Man(b1-4)GlcNAc(b1-4)[Fuc(a1-6)]GlcNAc
# Summary of the method: as §1
# [9] = biological target: Fuc(a1-2)[Gal(a1-3)]Gal(b1-3)GlcNAc(b1-3)GalNAc
# Summary of the method: as §1
# [10] = biological target: Fuc(a1-2)[Gal(a1-3)]Gal(b1-3)GlcNAc(b1-6)GalNAc
# Summary of the method: as §1
# [11] = biological target: Fuc(a1-2)[Gal(a1-3)]Gal(b1-4)Glc
# Summary of the method: as §1
# [12] = biological target: Fuc(a1-2)[Gal(a1-3)]Gal(b1-4)GlcNAc
# Summary of the method: as §1
# [13] = biological target: Fuc(a1-2)[Gal(a1-3)]Gal(b1-4)GlcNAc(b1-2)Man
# Summary of the method: as §1
# [14] = biological target: Fuc(a1-2)[Gal(a1-3)]Gal(b1-4)GlcNAc(b1-2)Man(a1-3)[Fuc(a1-2)[Gal(a1-3)]Gal(b1-4)GlcNAc(b1-2)Man(a1-6)]Man(b1-4)GlcNAc(b1-4)GlcNAc
# Summary of the method: as §1
# [15] = biological target: Fuc(a1-2)[Gal(a1-3)]Gal(b1-4)GlcNAc(b1-2)Man(a1-3)[Fuc(a1-2)[Gal(a1-3)]Gal(b1-4)GlcNAc(b1-2)Man(a1-6)]Man(b1-4)GlcNAc(b1-4)[Fuc(a1-6)]GlcNAc
# Summary of the method: as §1
# [16] = biological target: Fuc(a1-2)[Gal(a1-3)]Gal(b1-4)GlcNAc(b1-3)GalNAc
# Summary of the method: as §1
# [17] = biological target: Fuc(a1-2)[Gal(a1-3)]Gal(b1-4)GlcNAc(b1-3)[Fuc(a1-2)[Gal(a1-3)]Gal(b1-4)GlcNAc(b1-6)]GalNAc
# Summary of the method: as §1
# [18] = biological target: Fuc(a1-2)[Gal(a1-3)]Gal(b1-4)GlcNAc(b1-6)GalNAc
# Summary of the method: as §1
# [19] = biological target: Fuc(a1-2)[Gal(a1-3)]Gal(b1-4)[Fuc(a1-3)]Glc
# Summary of the method: as §1
# [20] = biological target: Fuc(a1-2)[Gal(a1-3)]Gal(b1-4)[Fuc(a1-3)]GlcNAc
# Summary of the method: as §1
# [21] = biological target: Fuc(a1-2)[Gal(a1-3)]Gal(b1-4)[Fuc(a1-3)]GlcNAc(b1-3)GalNAc
# Summary of the method: as §1
# [22] = biological target: Fuc(a1-2)[Gal(a1-4)]Gal(b1-4)GlcNAc
# Summary of the method: as §1
# [23] = biological target: Fuc(a1-2)[GalNAc(a1-3)]Gal
# Summary of the method: as §1
# [24] = biological target: Fuc(a1-2)[GalNAc(a1-3)]Gal(b1-3)GalNAc(a1-3)[Fuc(a1-2)]Gal(b1-4)GlcNAc
# Summary of the method: as §1
# [25] = biological target: Fuc(a1-2)[GalNAc(a1-3)]Gal(b1-3)GalNAc(b1-3)Gal(a1-4)Gal(b1-4)Glc
# Summary of the method: as §1
# [26] = biological target: Fuc(a1-2)[GalNAc(a1-3)]Gal(b1-3)GlcNAc
# Summary of the method: as §1
# [27] = biological target: Fuc(a1-2)[GalNAc(a1-3)]Gal(b1-3)GlcNAc(b1-2)Man(a1-3)[Fuc(a1-2)[GalNAc(a1-3)]Gal(b1-3)GlcNAc(b1-2)Man(a1-6)]Man(b1-4)GlcNAc(b1-4)GlcNAc
# Summary of the method: as §1
# [28] = biological target: Fuc(a1-2)[GalNAc(a1-3)]Gal(b1-3)GlcNAc(b1-2)Man(a1-3)[Fuc(a1-2)[GalNAc(a1-3)]Gal(b1-3)GlcNAc(b1-2)Man(a1-6)]Man(b1-4)GlcNAc(b1-4)[Fuc(a1-6)]GlcNAc
# Summary of the method: as §1
# [29] = biological target: Fuc(a1-2)[GalNAc(a1-3)]Gal(b1-3)GlcNAc(b1-3)GalNAc
# Summary of the method: as §1
# [30] = biological target: Fuc(a1-2)[GalNAc(a1-3)]Gal(b1-3)GlcNAc(b1-6)GalNAc
# Summary of the method: as §1
# [31] = biological target: Fuc(a1-2)[GalNAc(a1-3)]Gal(b1-4)Glc
# Summary of the method: as §1
# [32] = biological target: Fuc(a1-2)[GalNAc(a1-3)]Gal(b1-4)GlcNAc
# Summary of the method: as §1
# [33] = biological target: Fuc(a1-2)[GalNAc(a1-3)]Gal(b1-4)GlcNAc(b1-2)Man
# Summary of the method: as §1
# [34] = biological target: Fuc(a1-2)[GalNAc(a1-3)]Gal(b1-4)GlcNAc(b1-2)Man(a1-3)[Fuc(a1-2)[GalNAc(a1-3)]Gal(b1-4)GlcNAc(b1-2)Man(a1-6)]Man(b1-4)GlcNAc(b1-4)GlcNAc
# Summary of the method: as §1
# [35] = biological target: Fuc(a1-2)[GalNAc(a1-3)]Gal(b1-4)GlcNAc(b1-2)Man(a1-3)[Fuc(a1-2)[GalNAc(a1-3)]Gal(b1-4)GlcNAc(b1-2)Man(a1-6)]Man(b1-4)GlcNAc(b1-4)[Fuc(a1-6)]GlcNAc
# Summary of the method: as §1
# [36] = biological target: Fuc(a1-2)[GalNAc(a1-3)]Gal(b1-4)GlcNAc(b1-3)Gal(b1-4)GlcNAc
# Summary of the method: as §1
# [37] = biological target: Fuc(a1-2)[GalNAc(a1-3)]Gal(b1-4)GlcNAc(b1-3)Gal(b1-4)GlcNAc(b1-3)Gal(b1-4)GlcNAc
# Summary of the method: as §1
# [38] = biological target: Fuc(a1-2)[GalNAc(a1-3)]Gal(b1-4)GlcNAc(b1-3)GalNAc
# Summary of the method: as §1
# [39] = biological target: Fuc(a1-2)[GalNAc(a1-3)]Gal(b1-4)GlcNAc(b1-3)[Fuc(a1-2)[GalNAc(a1-3)]Gal(b1-4)GlcNAc(b1-6)]GalNAc
# Summary of the method: as §1
# [40] = biological target: Fuc(a1-2)[GalNAc(a1-3)]Gal(b1-4)GlcNAc(b1-6)GalNAc
# Summary of the method: as §1
# [41] = biological target: Fuc(a1-2)[GalNAc(a1-3)]Gal(b1-4)[Fuc(a1-3)]GlcNAc
# Summary of the method: as §1
# [42] = biological target: Fuc(a1-2)[GalNAc(a1-3)]Gal(b1-4)[Fuc(a1-3)]GlcNAc(b1-3)GalNAc
# Summary of the method: as §1
# [43] = biological target: Fuc(a1-2)[GalNAc(a1-4)]Gal(b1-4)GlcNAc
# Summary of the method: as §1
binder,measurement,setting,value
B1,glycan array binding signal (z-score),[1],-0.258
same,glycan array binding signal (z-score),[2],-0.255
same,glycan array binding signal (z-score),Fuc(a1-2)Gal6S(b1-4)Glc,-0.238
same,glycan array binding signal (z-score),[3],-0.234
same,glycan array binding signal (z-score),Fuc(a1-2)[Gal(a1-3)]Gal,-0.24
same,glycan array binding signal (z-score),[4],-0.248
same,glycan array binding signal (z-score),[5],-0.249
same,glycan array binding signal (z-score),[6],-0.238
same,glycan array binding signal (z-score),[7],3.82
same,glycan array binding signal (z-score),[8],2.14
same,glycan array binding signal (z-score),[9],-0.249
same,glycan array binding signal (z-score),[10],-0.241
same,glycan array binding signal (z-score),[11],-0.236
same,glycan array binding signal (z-score),[12],-0.24
same,glycan array binding signal (z-score),[13],-0.249
same,glycan array binding signal (z-score),[14],1.28
same,glycan array binding signal (z-score),[15],-0.241
same,glycan array binding signal (z-score),[16],-0.247
same,glycan array binding signal (z-score),[17],-0.24
same,glycan array binding signal (z-score),[18],-0.248
same,glycan array binding signal (z-score),[19],-0.245
same,glycan array binding signal (z-score),[20],-0.239
same,glycan array binding signal (z-score),[21],-0.251
same,glycan array binding signal (z-score),[22],-0.243
same,glycan array binding signal (z-score),[23],-0.247
same,glycan array binding signal (z-score),[24],-0.249
same,glycan array binding signal (z-score),[25],-0.243
same,glycan array binding signal (z-score),[26],-0.235
same,glycan array binding signal (z-score),[27],-0.042
same,glycan array binding signal (z-score),[28],-0.068
same,glycan array binding signal (z-score),[29],-0.23
same,glycan array binding signal (z-score),[30],-0.251
same,glycan array binding signal (z-score),[31],-0.248
same,glycan array binding signal (z-score),[32],-0.244
same,glycan array binding signal (z-score),[33],-0.241
same,glycan array binding signal (z-score),[34],-0.1
same,glycan array binding signal (z-score),[35],-0.223
same,glycan array binding signal (z-score),[36],-0.243
same,glycan array binding signal (z-score),[37],-0.233
same,glycan array binding signal (z-score),[38],-0.246
same,glycan array binding signal (z-score),[39],-0.247
same,glycan array binding signal (z-score),[40],-0.245
same,glycan array binding signal (z-score),[41],-0.233
same,glycan array binding signal (z-score),[42],-0.235
same,glycan array binding signal (z-score),[43],-0.236

# — the supplement of paper PMC8728848
